Source: the RNAGym collection of RNA variant scans (doi:10.7554/elife.90254)
Read counts are not given, so values of variants with three or more changes are uncertain.

B1: LINE1-full (parent)
chain: UACGUAGGUGGUUUUCCCCUGAUAGUGCUAAGGGGGCCUGGAAGUUUGGACUGGGCAGAGCUCAACACAGCGUGGCAAAGUGGCUGUGGCUAGACUGCCUCUCUGGAUUCCUCGUCACUCAGCAGGGCAUCUCUGAGAGAAAUGCC

Variants of: B1
Experiment: self-cleavage, relative activity (ratio to wild type); higher = more cleavage; in vitro, sequencing; the parent is a self-cleaving ribozyme

Variant	self-cleavage
U1C G21A U29C C71U U132C	0.99
U1C G25U A31U A57G	0.66
U1C G27A A64G A69G U87A U104C	0
U1C G32A A59G A92G	0.47
U1C G33A U45C	0.78
U1C G33C C56U G144A	0.4
U1C G33U G58A A67G A79U A107G U109A C118U A124G	0.03
U1C G41A C84A A141G	0.07
U1C G41A U46A A92U	0.14
U1C G48A G144A	0.44
U1C G54U A64G	0.1
U1C G80A U112C U143A	0.89
U1C G88U U102C	0.36
U1C U5A U115C	0.9
U1C U5C A65G U112A	0.14
U1C U9A A31U A59G A140U	0.28
U1C U9A A67U U100C C101U A124G A140G	0.07
U1C U9A G72C G93U	0.04
U1C U9C A43G A64G U134C	0
U1C U9C G36A G97A A121U	0.14
U1C U9C U14C A43G A64U A69U	0.36

Variant	self-cleavage
U1C U9C U47C	0.47
U1C U12A U109A A121G	0.78
U1C U12C A24G	1.48
U1C U12C A69G A77G A140G	0
U1C U12C A77G	0
U1C U12C U14C A117G	1.25
U1C U12C U26A U132C	0.4
U1C U12C U102C A124G	0
U1C U12G A57C U102A C146U	0.52
U1C U12G U39A A124G A138U A141G	0.46
U1C U13C U14A	0
U1C U13C U14C U23C A129G A138G	0
U1C U13C U100C A140G	2.12
U1C U14A U29C C38U A141G	0.64
U1C U14C U47A A57G A67G U108A	0
U1C U14C U119A	1.12
U1C U14C U119C A136G A140U	1.44
U1C U14G U47A	1.21
U1C U15A A31G	1.04
U1C U15A A129U	0.75
U1C U15A U20A A78U A129U	0.85

Variant	self-cleavage
U1C U15A U100A	0.49
U1C U15C A22G A42G A69U G80U C101A A129U	0.51
U1C U15C A78G	0.65
U1C U15C G114C G139A	1
U1C U15C U29C G41U A94U	0.34
U1C U20A U87A U96C A124G	0.14
U1C U20C A22G U81G C90U A124U	0.13
U1C U20C A69G	1.41
U1C U20C C71A	0.2
U1C U20C U47C G49A U130C	1.38
U1C U23C A30U U47C	0.42
U1C U23C A92G	0.19
U1C U23C A124G	0.82
U1C U23C C68U	0.4
U1C U23C G72A U119C	1.19
U1C U23C G139U	0.75
U1C U26A A43G G74A	0.41
U1C U26A A57G C76U A77G A136G	0.73
U1C U26A U52A A69G	0.28
U1C U29C U46C U62A U109C G126A U143A	0.11
U1C U39C C146A	1.09

Variant	self-cleavage
U1C U39C U85A U134C A138G	0.16
U1C U45A A77G	1.69
U1C U46A A50G	0.84
U1C U46C A79G U104C C145G	0.92
U1C U47A U52C A138G	1.58
U1C U52A C61U A129G U132C	0.07
U1C U62A A64G A69G U102C	0
U1C U62A U87A U96C U115C	0
U1C U62C A79G	0
U1C U62C C146U	0
U1C U73A A107G U132G	2.7
U1C U73A A136G	1.13
U1C U73A U85A U96A U102C A121G	0.05
U1C U73C U130C	0.92
U1C U81A A138G	1.29
U1C U85C A142G	0.16
U1C U100C A140U	0.93
U1C U104A U112C	0.33
U1C U119C A142G	2.21
U1C U119C U134C A136U	1.03
